T1: IL-2 receptor (IL-2Ra, IL-2RB and common gamma chain) on mouse CD4+CD25+ Tregs (mouse, UniProt P01590 22-268; P16297 27-539; P34902 23-369)
T1 sequence (looked up) 1: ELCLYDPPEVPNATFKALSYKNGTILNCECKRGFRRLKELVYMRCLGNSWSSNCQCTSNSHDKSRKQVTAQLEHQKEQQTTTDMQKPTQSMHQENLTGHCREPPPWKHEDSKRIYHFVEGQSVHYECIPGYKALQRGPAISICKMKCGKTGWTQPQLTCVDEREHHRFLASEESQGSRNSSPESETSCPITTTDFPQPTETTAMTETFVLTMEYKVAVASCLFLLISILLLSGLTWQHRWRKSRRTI
T1 sequence (looked up) 2: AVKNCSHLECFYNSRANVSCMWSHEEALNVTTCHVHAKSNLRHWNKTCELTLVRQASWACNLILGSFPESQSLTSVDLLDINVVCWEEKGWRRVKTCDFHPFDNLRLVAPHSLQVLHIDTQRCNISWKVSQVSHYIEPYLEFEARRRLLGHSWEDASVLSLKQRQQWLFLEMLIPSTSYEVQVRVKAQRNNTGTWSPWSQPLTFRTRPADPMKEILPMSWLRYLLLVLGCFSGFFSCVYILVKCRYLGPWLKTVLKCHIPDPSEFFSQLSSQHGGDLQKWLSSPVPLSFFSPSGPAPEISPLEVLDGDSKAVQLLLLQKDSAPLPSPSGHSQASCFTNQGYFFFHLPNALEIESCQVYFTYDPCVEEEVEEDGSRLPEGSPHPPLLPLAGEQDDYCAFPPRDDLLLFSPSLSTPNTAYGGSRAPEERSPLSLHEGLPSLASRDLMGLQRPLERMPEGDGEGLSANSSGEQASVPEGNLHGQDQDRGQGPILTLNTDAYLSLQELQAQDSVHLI
T1 sequence (looked up) 3: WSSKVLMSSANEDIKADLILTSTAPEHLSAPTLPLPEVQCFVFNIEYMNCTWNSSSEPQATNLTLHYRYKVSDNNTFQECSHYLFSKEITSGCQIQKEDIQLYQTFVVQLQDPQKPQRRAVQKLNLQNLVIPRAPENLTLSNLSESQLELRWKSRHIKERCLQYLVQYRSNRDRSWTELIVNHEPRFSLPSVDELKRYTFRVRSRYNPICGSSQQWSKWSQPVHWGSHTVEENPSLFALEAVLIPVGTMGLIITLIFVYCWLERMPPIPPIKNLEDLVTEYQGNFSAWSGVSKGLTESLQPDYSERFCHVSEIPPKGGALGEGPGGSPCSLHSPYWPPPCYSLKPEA

T2: IL-2 receptor (IL-2Ra, IL-2RB and common gamma chain) on human CD4+CD25+ Tregs (human, UniProt P01589 22-272; P14784 27-551; P31785 23-369)
T2 sequence (looked up) 1: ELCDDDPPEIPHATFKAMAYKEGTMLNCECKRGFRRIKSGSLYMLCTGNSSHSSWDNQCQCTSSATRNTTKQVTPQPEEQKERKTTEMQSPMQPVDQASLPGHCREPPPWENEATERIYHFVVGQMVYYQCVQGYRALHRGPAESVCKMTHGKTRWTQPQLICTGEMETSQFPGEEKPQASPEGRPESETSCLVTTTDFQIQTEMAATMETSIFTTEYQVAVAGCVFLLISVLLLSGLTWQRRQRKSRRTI
T2 sequence (looked up) 2: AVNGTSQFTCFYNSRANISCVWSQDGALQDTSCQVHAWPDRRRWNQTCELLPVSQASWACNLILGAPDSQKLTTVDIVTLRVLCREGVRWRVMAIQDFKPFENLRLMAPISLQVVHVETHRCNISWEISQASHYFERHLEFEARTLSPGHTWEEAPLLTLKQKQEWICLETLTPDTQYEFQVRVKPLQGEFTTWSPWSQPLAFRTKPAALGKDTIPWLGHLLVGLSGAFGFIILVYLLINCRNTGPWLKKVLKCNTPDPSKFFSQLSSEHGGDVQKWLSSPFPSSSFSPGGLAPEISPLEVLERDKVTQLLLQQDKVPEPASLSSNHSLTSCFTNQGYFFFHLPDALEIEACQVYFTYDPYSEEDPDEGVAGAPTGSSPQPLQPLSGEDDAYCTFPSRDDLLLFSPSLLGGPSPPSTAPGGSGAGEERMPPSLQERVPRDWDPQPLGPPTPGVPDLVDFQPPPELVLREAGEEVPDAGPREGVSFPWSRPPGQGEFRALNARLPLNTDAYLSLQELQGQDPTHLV
T2 sequence (looked up) 3: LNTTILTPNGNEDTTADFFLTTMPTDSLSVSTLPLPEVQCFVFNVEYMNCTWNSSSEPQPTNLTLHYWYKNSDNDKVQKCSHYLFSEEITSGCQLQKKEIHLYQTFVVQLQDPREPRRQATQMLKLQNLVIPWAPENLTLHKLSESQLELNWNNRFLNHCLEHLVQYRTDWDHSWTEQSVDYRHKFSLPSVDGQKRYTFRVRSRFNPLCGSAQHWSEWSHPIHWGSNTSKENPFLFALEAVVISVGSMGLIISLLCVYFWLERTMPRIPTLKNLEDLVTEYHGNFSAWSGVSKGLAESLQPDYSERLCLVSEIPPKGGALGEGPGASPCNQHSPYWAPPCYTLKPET

T3: IL-7 receptor (IL-7Ra and common gamma chain) on mouse T cells (mouse, UniProt P16872 21-459; P34902 23-369)
T3 sequence (looked up) 1: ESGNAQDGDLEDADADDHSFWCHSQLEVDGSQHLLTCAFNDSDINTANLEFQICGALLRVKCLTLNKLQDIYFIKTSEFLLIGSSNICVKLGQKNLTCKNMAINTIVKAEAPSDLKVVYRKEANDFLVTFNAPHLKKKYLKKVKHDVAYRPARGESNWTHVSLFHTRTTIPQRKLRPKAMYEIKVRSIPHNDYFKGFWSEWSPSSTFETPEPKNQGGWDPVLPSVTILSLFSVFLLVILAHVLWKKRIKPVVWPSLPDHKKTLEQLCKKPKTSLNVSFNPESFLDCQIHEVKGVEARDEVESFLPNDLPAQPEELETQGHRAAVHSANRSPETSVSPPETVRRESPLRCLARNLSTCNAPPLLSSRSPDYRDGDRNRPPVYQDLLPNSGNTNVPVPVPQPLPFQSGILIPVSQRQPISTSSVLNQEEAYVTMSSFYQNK
T3 sequence (looked up) 2: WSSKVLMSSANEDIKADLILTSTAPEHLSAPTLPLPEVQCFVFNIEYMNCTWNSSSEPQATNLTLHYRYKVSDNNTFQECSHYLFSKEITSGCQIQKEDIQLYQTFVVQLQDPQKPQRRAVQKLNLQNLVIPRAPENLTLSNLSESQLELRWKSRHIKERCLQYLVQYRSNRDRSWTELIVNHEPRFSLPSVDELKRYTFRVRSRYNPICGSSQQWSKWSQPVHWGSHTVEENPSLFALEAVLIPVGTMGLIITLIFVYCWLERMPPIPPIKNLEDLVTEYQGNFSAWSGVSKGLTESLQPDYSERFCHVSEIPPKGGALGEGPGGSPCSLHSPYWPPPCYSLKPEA

T4: IL-7 receptor (IL-7Ra and common gamma chain) on human PBMC T cells (human, UniProt P16871 21-459; P31785 23-369)
T4 sequence (looked up) 1: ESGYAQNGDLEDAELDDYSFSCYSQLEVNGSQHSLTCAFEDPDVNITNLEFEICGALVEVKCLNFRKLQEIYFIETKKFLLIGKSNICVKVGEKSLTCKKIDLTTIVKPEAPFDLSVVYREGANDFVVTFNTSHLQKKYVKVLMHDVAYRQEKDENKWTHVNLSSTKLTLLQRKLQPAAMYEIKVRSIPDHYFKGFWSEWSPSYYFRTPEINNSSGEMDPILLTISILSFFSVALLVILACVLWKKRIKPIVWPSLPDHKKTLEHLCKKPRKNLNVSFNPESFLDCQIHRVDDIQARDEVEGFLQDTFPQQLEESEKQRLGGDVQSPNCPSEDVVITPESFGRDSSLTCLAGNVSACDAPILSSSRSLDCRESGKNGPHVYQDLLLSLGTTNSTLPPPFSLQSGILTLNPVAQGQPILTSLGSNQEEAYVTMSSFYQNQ
T4 sequence (looked up) 2: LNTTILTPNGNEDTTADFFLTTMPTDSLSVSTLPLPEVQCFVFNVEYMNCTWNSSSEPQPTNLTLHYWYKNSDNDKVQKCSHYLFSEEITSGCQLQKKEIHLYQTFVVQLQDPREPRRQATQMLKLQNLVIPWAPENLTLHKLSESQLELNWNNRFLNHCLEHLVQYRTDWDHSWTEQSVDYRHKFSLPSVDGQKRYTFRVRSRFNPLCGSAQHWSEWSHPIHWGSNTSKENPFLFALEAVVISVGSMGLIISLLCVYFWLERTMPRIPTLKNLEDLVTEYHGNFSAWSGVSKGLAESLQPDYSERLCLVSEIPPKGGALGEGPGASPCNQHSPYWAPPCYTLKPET


Key:
Experiment in all cases: cell-based or functional assay
[1] = biological target: T1, IL-2 receptor (IL-2Ra, IL-2RB and …)
[2] = biological target: T2, IL-2 receptor (IL-2Ra, IL-2RB and …)
[3] = biological target: IL-2 receptor (IL-2Ra, IL-2RB and common gamma chain) on cynomolgus monkey CD4+CD25+ Tregs (cynomolgus monkey, UniProt H6WS54 22-272; Q38J85 27-551)
[4] = biological target: T5, IL-7 receptor (IL-7Ra and common gamma chain) on cynomolgus monkey PBMC T cells (cynomolgus monkey, UniProt Q38IC7 21-459)
[5] = biological target: T3, IL-7 receptor (IL-7Ra and common gamma …)
[6] = biological target: T5, IL-7 receptor (IL-7Ra and common gamma …); remark: listed apart in the source
[7] = biological target: T4, IL-7 receptor (IL-7Ra and common gamma …)

EC50 of STAT5 phosphorylation, mouse CD4+CD25+ Tregs [1] [% supernatant]	EC50 of STAT5 phosphorylation, human CD4+CD25+ Tregs [2] [% supernatant]	EC50 of STAT5 phosphorylation, cynomolgus monkey CD4+CD25+ Tregs [3] [% supernatant]	fold-increased potency versus human (STAT5 phosphorylation), cynomolgus monkey CD4+CD25- T cells [4] [fold]	fold-increased potency versus human (STAT5 phosphorylation), cynomolgus monkey CD8+ T cells [4] [fold]	EC50 of STAT5 phosphorylation, mouse CD4+CD25- T cells [5] [% supernatant]	EC50 of STAT5 phosphorylation, mouse CD8+ T cells [5] [% supernatant]	EC50 of STAT5 phosphorylation, cynomolgus monkey CD4+CD25- T cells [6] [% supernatant]	EC50 of STAT5 phosphorylation, cynomolgus monkey CD8+ T cells [6] [% supernatant]	EC50 of STAT5 phosphorylation, human CD8+ T cells [7] [% supernatant]	Binder
0.01	0.01	0.01	–	–	–	–	–	–	–	hAlb-hIL2 (human IL-2 fused to the C-terminus of human serum albumin; translated protein of BNT153 / RBP006.1) (ligand) not shown
–	–	–	~3.5	~2.4	0.24	0.28	0.06	0.12	0.29	hIL7-hAlb (human IL-7 fused to the N-terminus of human serum albumin; translated protein of BNT152 / RBP009.1) (ligand) DCDIEGKDGKQYESVLMVSIDQLLDSMKEIGSNCLNNEFNFFKRHICDANKEGMFLFRAARKLRQFLKMNSTGDFDLHLLKVSEGTTILLNCTGQVKGRKPAALGEAQPTKSLEENKSLKEQKKLNDLCFLKRLLQEIKTCWNKILMGTKEHGGSGGGGSGG[about 600 residues left out]
